Where two headings read alike, the source gives them in different places.
Biological target: human 5-HT2ARs (Homo sapiens, UniProt P28223)
Details: [125I](±)DOI

Chain of UniProt P28223 (P28223 whole entry): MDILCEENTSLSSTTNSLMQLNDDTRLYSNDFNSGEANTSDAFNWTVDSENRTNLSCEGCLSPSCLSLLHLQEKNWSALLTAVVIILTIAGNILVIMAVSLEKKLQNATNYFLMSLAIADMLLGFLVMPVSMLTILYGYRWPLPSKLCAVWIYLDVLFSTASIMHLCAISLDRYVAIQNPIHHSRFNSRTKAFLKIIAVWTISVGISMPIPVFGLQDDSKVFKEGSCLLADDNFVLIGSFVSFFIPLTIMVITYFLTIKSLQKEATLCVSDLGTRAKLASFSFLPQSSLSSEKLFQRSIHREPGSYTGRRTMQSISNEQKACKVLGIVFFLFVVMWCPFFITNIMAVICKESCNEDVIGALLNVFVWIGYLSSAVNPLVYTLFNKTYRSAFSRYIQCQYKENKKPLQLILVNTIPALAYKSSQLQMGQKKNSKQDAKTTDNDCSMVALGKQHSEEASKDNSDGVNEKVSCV

Molecule | Percent displacement of radioligand, 5-HT2A (100 nM alkaloid) [%] | Percent displacement of radioligand, 5-HT2A (10,000 nM alkaloid) [%]
CC[C@@H]1CN2CCc3c([nH]c4ccccc34)[C@@H]2C[C@@H]1/C(=C\OC)C(=O)OC [corynantheidine] | −6.8 | 28.7
Methyl(4S,4aR,13bS,14aS)-4-methyl-4a,5,7,8,13,13b,14,14a-octahydro-4H-indolo[2,3-a]pyrano[3,4-g]quinolizine-1-carboxylate [ajmalicine] | 5.1 | 36.5
CC[C@H]1CN2CCc3c([nH]c4cccc(OC)c34)[C@@H]2C[C@@H]1/C(=C\OC)C(=O)OC [speciogynine, Methyl(E)-2-((2S,3R,12bS)-3-ethyl-8-methoxy-1,2,3,4,6,7,12,12b-octahydroindolo[2,3-a]quinolizin-2-yl)-3-methoxyacrylate] | – | 82.7
CC[C@@H]1CN2CCc3c([nH]c4cccc(O)c34)[C@@H]2C[C@@H]1/C(=C\OC)C(=O)OC [9-hydroxycorynantheidine] | −6.5 | 28.4
